About 2,600 (0.72%) of roughly 360,000 compounds were called active. The inconclusive results got no clear call from the source; some entries with a clear call stand among them for comparison. Calls follow the shape of the dose curve; as a rule, active = well fitted inhibition curve with a large enough effect; inconclusive = small, poorly fitted or top-dose-only effect; inactive = no such curve, though single readings can be large or run the other way. Potencies of inconclusive entries are doubtful fits and often do not repeat.
Experiment: Primary qHTS for Inhibitors of ATXN expression; also: nearly all actives have a fitted effect of over 55% in size
Settings: HEK-293 ATXN2-luciferase reporter, luminescence, 24 h; activity change, negative = inhibition: at 57 µM (top of the series)
Method in brief: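 ATXN2-luciferase reporter cells (luciferase flanked by upstream and downstream ATXN2 gene portions) were treated 24 h at 37 °C with compounds at up to 57 uM. SteadyGlo luminescence gave expression; GF-AFC fluorescence gave viability.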
% is scaled to controls: 0 for no effect and ±100 for the full control effect; potency is read from the fitted curve at half-maximal effect; tags tell the direction and shape of the fitted curve.

Potency, inconclusive:
COc1ccc(CNC(=O)C[C@H]2C[C@H](C(=O)N(C(C)C)C(C)C)[C@@]3(C)c4[nH]c5cc(-c6ccco6)ccc5c4CCN3C2=O)cc1OC 39.8 µM [inhibitor, single point]
CCOC(=O)N(C)c1c(CC)nc2c(OCc3ccccc3C(=O)OC)cccn12 39.8 µM [inhibitor, partial curve, poor fit]
Cc1cc(NC(=S)NC(=O)c2ccccc2)ccc1-c1cc2ccccc2oc1=O 11.2 µM [inhibitor, partial curve]
CN(C)CCn1cnc2c(c1=N)C(c1ccccc1)c1ccc3ccccc3c1O2 (stereo not given) 25.1 µM [inhibitor, single point]
CC(C)(C)NC(=O)C(c1c[nH]c2ccccc12)N(C(=O)Cn1nnc(-c2ccc(F)cc2)n1)c1cccc(O)c1 (stereo not given) 3.16 µM [inhibitor, partial curve, poor fit]
CCc1cccc(C)c1NC(=S)NCC(c1cccnc1)N(C)C (stereo not given) 2.12 µM [inhibitor, partial curve, poor fit]
O=C(NCCc1ccc(F)cc1)C(=O)NCC(c1cccs1)S(=O)(=O)c1ccc(Cl)cc1 (stereo not given) 14.1 µM [inhibitor, partial curve, poor fit]
Cc1ncoc1C(=O)NC1CCCc2c1cnn2-c1ccc(C(C)(C)C)cc1 (stereo not given) 4.47 µM [inhibitor, partial curve, poor fit]
O=C(COc1ccc(S(=O)(=O)N2CCCC2)cc1)N1CCN(c2ccccc2F)CC1 12.6 µM [inhibitor, partial curve, poor fit]
Cc1onc(-c2ccccc2)c1C(=O)Nc1ncc([N+](=O)[O-])s1 12.6 µM [inhibitor, partial curve]
OC(c1cccc(Cl)c1)c1ncc(-c2cccc(C(F)(F)F)c2)[nH]1 (stereo not given) 25.1 µM [inhibitor, single point]
Cc1ccc(C(=O)NCC(c2ccc3c(c2)OCO3)N2CCN(c3ccc(F)cc3)CC2)cc1 (stereo not given) 17.8 µM [inhibitor, partial curve, poor fit]
Cc1cc(C(=O)N/N=C/c2cc([N+](=O)[O-])cc(C)c2O)n[nH]1 17.8 µM [inhibitor, partial curve]
CCOC(=O)c1[nH]c2ccc(Cl)cc2c1NC(=O)/C=C/c1ccc2c(c1)OCO2 15.8 µM [inhibitor, partial curve, poor fit]
O=C(/C=C/Nc1ccc(Br)cc1F)c1ccco1 37.7 µM [inhibitor, single point]
O=C(COc1ccc([N+](=O)[O-])cc1)Nc1ccncc1 0.299 µM [inhibitor, full curve]
C=CC[C@H](CC(=O)N(CCO)Cc1ccccc1)C(=O)N[C@H](COC(=O)[C@@H](CC=C)Cc1ccc(F)cc1)Cc1c[nH]c2ccccc12 39.8 µM [inhibitor, single point]
CC(c1ccccc1)N1CCC(CNC(=S)Nc2cccc(Cl)c2)C1 (stereo not given) 17.8 µM [inhibitor, partial curve, poor fit]
COc1cc(/C=C2\SC(c3ccc(C)cc3)=NC2=O)cc(OC)c1O 25.1 µM [inhibitor, partial curve, poor fit]
Cc1nc2ccc(C(=O)N(C)Cc3ccco3)cn2c1N(C)CC1CCCCC1 39.8 µM [inhibitor, partial curve, poor fit]
Cc1cccc(N2CCN(C(=O)Cn3ncc4c3-c3cc(C)ccc3OC4)CC2C)c1 (stereo not given) 25.1 µM [inhibitor, single point]
COC(=O)c1ccc(OCC2c3cc(OC)c(OC)cc3CCN2C(=O)c2ccccc2C)cc1 (stereo not given) 35.5 µM [inhibitor, single point]
CCCS(=O)(=O)N1CCN(Cc2ccc3c(c2)c2ccccc2n3CC)CC1 14.1 µM [inhibitor, partial curve, poor fit]
COc1ccc(-c2cc(C(=O)Nc3c(C)nn(Cc4ccccc4Cl)c3C)no2)cc1 25.1 µM [inhibitor, partial curve]
O=C(CCN1C(=O)/C(=C\c2ccccc2F)SC1=S)N1CCCCC1 39.8 µM [inhibitor, single point]
CCN(CC)CCCNC(=S)N1CCN(c2nc(-c3ccccc3)cs2)CC1 17.8 µM [inhibitor, partial curve, poor fit]
CCCC(=O)NC(NC(=S)Nc1ccc(N=Nc2ccccc2)cc1)C(Cl)(Cl)Cl (stereo not given) 22.4 µM [inhibitor, single point]
Cc1cc(C)cc(Cn2ncc(Cl)c(Cl)c2=O)c1 39.8 µM [inhibitor, single point]
CCOC(=O)CSCC(NC(=O)OC(C)(C)C)C(=O)OCC (stereo not given) 25.1 µM [inhibitor, single point]
CC(C)Oc1ccc(C(CCNCc2ccc(O)cc2)c2ccccc2)cc1 (stereo not given) 31.6 µM [inhibitor, single point]
Cc1nc2cc(C(=O)NCCC3=CCCCC3)ccc2n1-c1ccc(Br)cc1 39.8 µM [inhibitor, single point]
COc1ccc(-c2csc(Nc3ccc(Oc4ccccc4)cc3)n2)cc1 15.8 µM [inhibitor, partial curve, poor fit]
O=C(NC(c1ccc(F)cc1)c1ccc2ccccc2n1)C1CCN(Cc2cccc(C(F)(F)F)c2)CC1 (stereo not given) 31.6 µM [inhibitor, single point]
Nc1nc(CCl)nc(Nc2ccccc2)n1 29.9 µM [inhibitor, single point]
Cc1ccc2ncc(S(=O)(=O)c3ccccc3)c(N3CCCCC3C)c2c1 (stereo not given) 28.2 µM [inhibitor, partial curve, poor fit]
Cc1cc(N2CCN(C)CC2)nc2ccc(NC(=S)N3CCN(c4ccc(F)cc4)CC3)cc12 39.8 µM [inhibitor, partial curve, poor fit]
O=C(O)CSc1nnc(NC(=O)c2ccc3c(c2)OCO3)s1 28.2 µM [inhibitor, partial curve, poor fit]
Cc1noc(C)c1CSCC(=O)N1CCN(c2ccc([N+](=O)[O-])cc2)CC1 15.8 µM [inhibitor, partial curve, poor fit]
CC1CCc2sc(C(=O)OCC(=O)NCc3ccc(F)cc3)cc2C1 (stereo not given) 31.6 µM [inhibitor, partial curve, poor fit]
CCN(C(=O)c1sc2cc(OC)ccc2c1Cl)c1ccccc1 39.8 µM [inhibitor, single point]
COc1ccccc1C1CCN(Cc2ccccc2)CC1 28.2 µM [inhibitor, partial curve, poor fit]

Potency, active:
COc1cc(NC(=O)c2[nH]cnc2C(N)=O)cc(C(=O)Nc2cccc(C(F)(F)F)c2)c1 10 µM
COc1ccc(-c2nc(CN3CCN(c4cc(C)nc(C)c4)CC3)c(C)o2)c2ccccc12 11.2 µM
O=C(NCc1cccc(Cl)c1)c1cccc2c(-c3cccnc3)coc12 28.2 µM
C[C@]1(CO)CN(c2cc(C(=O)Nc3ccc4c(c3)-c3c(c(C(N)=O)nn3-c3ccc(F)cc3)CC4)c(Cl)cn2)C[C@@]1(C)CO 8.63 µM
CCC(=O)NC(c1ccco1)c1cc(Br)c2cccnc2c1O (stereo not given) 5.01 µM

Activity change, negative = inhibition, inactive:
O=C1c2ccc3c4c(ccc(c24)C(=O)N1NC(=O)C(F)(F)F)CC3 -5.59%
COC(=O)c1sccc1NC(=O)Nc1cccc([N+](=O)[O-])c1 0.0723%
CC(=O)Nc1ccc(S(=O)(=O)N2CCN(Cc3nc4sc(C)c(C)c4c(=O)[nH]3)CC2)cc1 -11.7%
CC1(C)Cc2cccc(OCC(=O)OCC(=O)NCc3ccccc3)c2O1 -10.3%
Cc1ccc(CNC(=O)CN(C)S(=O)(=O)c2ccc3c(c2)c(=O)n(C)c(=O)n3C)cc1 3.65%
Cc1noc(C)c1COc1cccc(C(=O)Nc2ccccc2N2CCOCC2)c1 -12%
COC(=O)c1c(NC(=O)COc2ccc(C)cc2Br)sc2c1CCCC2 4.92%
S=C(NCc1cccs1)Nc1cccc2ccccc12 -9.06%
CCOc1ccc(N/C(SC)=C(/C#N)C(N)=O)cc1 8.02%
O=C(CN1CCCCC1)Nc1cccc(Cl)c1 -31.1%
N#Cc1cccc(C(c2nnnn2CCc2ccccc2)N2CCN(C3CCCCC3)CC2)c1 (stereo not given) 2.36%
Cc1cc(CNC(=O)c2ccc3nc(Cc4ccccc4F)oc3c2)nn1C 57%
Cc1cccc(N2CCN(C(=O)C34CC5CC(CC(C5)C3)C4)CC2)c1C -3.36%
COc1cc(S(=O)(=O)Nc2ccccc2C(=O)N2CCCC2)ccc1NC(C)=O -2.43%
O=C(N/N=C\c1ccc([N+](=O)[O-])o1)c1cncc(Br)c1 -17.6%
CSc1ccccc1NC(=O)CN(C)CC(=O)Nc1ccc(Cl)cc1F -5.21%
Cc1cc(C(=O)CN2c3cccc4cccc(c34)S2(=O)=O)c(C)n1C -3.59%
CN(C)c1nc(Cc2ccc(NC(=O)c3ccc4ccccc4c3)cc2)nc(Cl)c1CC(=O)O -1.21%
COc1ccc(NS(=O)(=O)c2ccc(NC(=O)C3CC3)cc2)cc1 -3.18%

Source: PubChem BioAssay AID1745845 (National Center for Advancing Translational Sciences (NCATS), 2022)
